# Source: the supplement of paper PMC3334620
# The full ranking holds about 33,000 sequences; the median of “E-score (-0.5 to 0.5)” is about -0.011, and the highest 2% start at about 0.28. This is one part of the list.
# Biological target: T1, Gcr1 (UniProt P07261)
# T1 sequence: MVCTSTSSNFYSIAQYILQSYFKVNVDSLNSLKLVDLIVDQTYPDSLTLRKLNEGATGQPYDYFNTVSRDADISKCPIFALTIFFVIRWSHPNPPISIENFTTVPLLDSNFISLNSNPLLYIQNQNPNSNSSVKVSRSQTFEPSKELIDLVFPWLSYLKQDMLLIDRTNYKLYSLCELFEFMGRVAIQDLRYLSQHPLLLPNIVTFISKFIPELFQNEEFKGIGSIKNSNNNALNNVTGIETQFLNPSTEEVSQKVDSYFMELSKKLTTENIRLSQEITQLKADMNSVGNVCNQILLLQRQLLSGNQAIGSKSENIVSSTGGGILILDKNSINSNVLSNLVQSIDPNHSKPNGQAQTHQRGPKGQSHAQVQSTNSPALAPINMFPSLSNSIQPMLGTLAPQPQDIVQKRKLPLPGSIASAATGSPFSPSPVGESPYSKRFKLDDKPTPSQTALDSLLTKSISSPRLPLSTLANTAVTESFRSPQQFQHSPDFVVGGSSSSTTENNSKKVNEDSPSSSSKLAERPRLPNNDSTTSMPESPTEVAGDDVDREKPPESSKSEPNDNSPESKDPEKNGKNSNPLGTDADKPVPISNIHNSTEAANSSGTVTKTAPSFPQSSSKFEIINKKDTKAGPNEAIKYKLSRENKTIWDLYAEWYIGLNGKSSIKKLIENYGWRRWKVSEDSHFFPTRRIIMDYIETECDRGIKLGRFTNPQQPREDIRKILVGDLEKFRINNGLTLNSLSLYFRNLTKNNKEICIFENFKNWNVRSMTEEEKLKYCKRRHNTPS
# Assay: PBM E-score (8-mer binding enrichment) (E-score (-0.5 to 0.5)); higher = stronger / more preferred TF binding; most listed sequences are background and not binding sites
# Details: protein concentration: 100 nM; construct: GST-full length
# Summary of the method: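 The E-score, a modified Wilcoxon-Mann-Whitney statistic, was computed by the Universal PBM Analysis Suite for every ungapped eight-base word pooled with its reverse complement. Scans behind it were normalised with masliner after bound GST-tagged yeast transcription factors were detected with fluorescent anti-GST. The proteins, at about 100-200 nM, had been applied to universal all-10-mer Agilent arrays made double-stranded by primer extension.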
row,Sequence,PBM E-score
1,ACTGGCCC,-0.0709
2,AATGTGGG,0.021
3,AAAAATCC,-0.0869
4,ATTCTGGC,0.0945
5,AAAGAAAC,0.0061
6,GATCCAGC,0.0574
7,CGGGGAAG,0.0367
8,AGCTATAA,-0.0221
9,CAGCGAGA,-0.121
10,CCACGTAC,-0.016
11,ATGAGCAC,-0.046
12,ACGTGAAG,-0.187
13,CCCTAAGA,0.11
14,ACTGATTG,-0.0248
15,AACCTATT,0.163
16,AGGGAACG,0.0557
17,CTAAAGAC,-0.0627
18,AGATATAA,-0.0208
19,ATCGTTCA,0.0507
20,CTTTTTCA,-0.00472
21,CCAAGACC,-0.248
22,GCTAGGGA,0.139
23,CAACTGCC,0.176
24,GGCCTAAC,-0.133

row,Sequence,PBM E-score
1,CCATGATC,-0.175
2,TCAGTGAA,-0.123
3,ACCTGGCG,-0.162
4,ATCCACCC,-0.109
5,CGCCTCAC,-0.23
6,GCTAAAAC,0.081
7,CCCGCTAG,-0.137
8,CAGAGTTC,-0.138
9,GAGATAGC,-0.0656
10,AGTGCCGA,-0.0356
11,GGTGTCAA,0.0372
12,GAACTTCA,-0.0808
13,ATTAGATA,0.088
14,AGCCTCCA,0.00374
15,CAACCAAC,-0.102
16,TTCGGAAA,0.0651
17,CCAGGCAC,0.0853
18,CCCTCTCG,-0.238
19,CTCATTGC,-0.125
20,GAATTTCA,-0.109
21,GGTACAAC,0.0843
22,CTCTGCGC,-0.22
23,AGTATTGC,0.195
24,AGGACGGG,-0.227

row,Sequence,PBM E-score
1,TAGCGTAA,-0.0302
2,CCTGACGA,-0.0975
3,CGCCCTTC,-0.0575
4,CTAGCCTA,-0.269
5,GAAGGAAA,-0.165
6,TCCTACCA,-0.0385
7,ATTCCTTG,0.0515
8,GCAGTTAA,-0.0197
9,ACATCTAC,-0.0726
10,GGGTTCGA,0.0598
11,GGGTCAAC,-0.093
12,TGAGGGCA,-0.0382
13,AACGCTGT,-0.186
14,AACGTCAG,-0.316
15,CATCGTTC,0.0509
16,AGCCGCAC,-0.0599
17,ATTGAACC,-0.0617
18,CAAATGCG,0.131
19,ATTAGGGC,0.0358
20,AATATCCC,0.0593
21,GCTCCCCC,-0.105
22,CCAAAAAA,0.272
23,AGGCTGAT,0.00163
24,GGAGCGAC,-0.0613

row,Sequence,PBM E-score
1,GAACTCTA,-0.0935
2,CGTTGGGC,-0.0925
3,TCAATTAA,0.126
4,ACTCTTGA,-0.15
5,GGGCATAA,-0.137
6,GAACGTAC,-0.214
7,CTCTTTAA,-0.101
8,ATAACTCA,-0.2
9,ACGCATCG,-0.00937
10,ACCACATA,0.0238
11,CATACGTA,-0.0213
12,GTGATCTA,0.0117
13,GCTAGGTA,-0.195
14,CCGGACTA,-0.068
15,TCCCACGA,0.244
16,AGATGAAT,-0.0956
17,TAAACGCA,0.158
18,AGGGTAAG,-0.131
19,AACAAATA,0.035
20,ATTACACG,0.176
21,AAGTTGTG,-0.0538
22,CACACGAC,-0.00814
